Measurements taken from patent publication US6482412B1, “Polypeptide having human HIV inhibitory activity, a gene encoding the polypeptide, a method to produce the polypeptide” (Gakkou Houjin Kitasato Gakuen, priority 1999, dated 2002).

Tests used:
Assay type in all cases: cell-based
[1] = tested on: M-tropic HIV JR-CFS; assay: Anti-HIV activity by MAGI assay, JR-CFS; conditions: read-out: Infection preventive activity (IC50nM)
Description: (§1) Furthermore, the anti-HIV activity of K97-0003 peptide was measured by MAGI assay (The multinuclear activation of a galactosidase indicator), which can evaluate activation of a gene using β-galactosidase activity as an indicator. The cells were transformed by CD4 gene and CCR5 gene, the coreceptor of HIV. Moreover, LTR (long terminal repeat) of HIV and β-galactosidase gene were further introduced into the transformed cells. Such cells were used for this assay. In such cells, β-galactosidase is activated accompanied with HIV infection of the cell. Therefore, infection of HIV can be measured by color development of X-gal (5-bromo-4-chloro-3-indolyl-β-galactoside), which is the substrate of β-galactosidase. MAGI assay was performed according to the method of R. Arakaki et al. (R. Arakaki et al., Jounal of Virology, Vol.73, No.2, p1719-1723) and the method of J. Kimpton et al. (J. Kimpton et al., Jounal of Virology, Vol.66, No.4, p2232-2239).

[2] = tested on: HIV infected MT-4 cell; assay: Anti-HIV activity by suppression of cytopathic effect, MTT method; conditions: HIV infected MT-4 cells, five days, read-out: BC50 (the source's name)
Description: (§2) Anti-HIV activity was measured from suppression of cytopathic effect caused by HIV infection. The HIV infected MT-4 cell (2.5×10^4 cells/well, degree of multiple infection: 0.01) was added to 96 well titer plate immediately after infection. At the same time, K97-0003 peptide of various concentration was also added to the plate. In order to examine cytopathic effect of K97-0003 peptide on MT-4 cell, cells uninfected by HIV was incubated with K97-0003 peptide of various concentrations in the same manner. After five days of incubation at 37° C. in a CO2 incubator, the number of cell survived was measured by MTT method.
(1) EC50: It is the concentration of K97-0003 peptide which inhibits 50% of the cytotoxicity by HIV infection, and is the parameter of anti-HIV activity of the peptide.

[3] = tested on: HIV-2 ROD; assay: Anti-HIV activity by MAGI assay, ROD; conditions: read-out: Infection preventive activity (IC50nM)
Description: as §1

[4] = tested on: T-tropic HIV III B; assay: Anti-HIV activity by MAGI assay, III B; conditions: read-out: Infection preventive activity (IC50nM)
Description: as §1

[5] = tested on: syncytium formation by fusion of HeLa/CD4/LTR cells and HeLa135/env (T-tropic HIV-1)/Tat cells
Description: 50 μl of HeLa/CD4 /LTR cell suspension prepared to 1.6×10^5 cells/ml was inoculated into every each well of 96 well plate (IWAKI MICROPLATE 96well), and 10 μl of the sample, diluted in a series of concentration with phosphate buffer physiological saline, was added to every each well. Then, 50 μl of HeLa135/env(envelope glycoprotein: originated from T-tropic HIV-1)/Tat cell suspension prepared to 1.6×10^5 cells/ml was dispensed to every well, and incubated in an incubator at 37° C. under 5% CO2 air current for 24 hours. After removal of the culture fluid from each well, 20 μl of cell lysis solution was added to every each well, and the plate was left at the room temperature for about 10 minutes.
Continuously, 100 μl of chromogenic substrate solution (Z-buffer: 80 μl+4 mg/ml o-nitrophenyl-β-D-glactopyranoside:20 μl) was added to each well, and reacted in the incubator at 37° C. […] After 80 minutes, 25 μl of reaction stop solution (2M Na2CO3) was added to it, and the absorbance at 405 nm was measured using colorimeter (Organ ON SystemMicrowell System Reader 510). Syncytium formation ability was calculated from the obtained absorbance by the following formula.
Syncytium formation ability=the absorbance of the well with sample addition/absorbance of control×100

[6] = tested on: T-tropic HIV NL4-3; assay: Anti-HIV activity by MAGI assay, NL4-3; conditions: read-out: Infection preventive activity (IC50nM)
Description: as §1

[7] = tested on: MT-4 cell; assay: Cytotoxicity on uninfected MT-4 cells, MTT method
Description: as §2
(2) CC50: It is the concentration of K97-0003 peptide that causes cytotoxicity to 50% of cells, and is the parameter of cytotoxic effect of the peptide.

[8] = tested on: HIV-2 EHO; assay: Anti-HIV activity by MAGI assay, EHO; conditions: read-out: Infection preventive activity (IC50nM)
Description: as §1

B1: K97-0003 peptide: polypeptide having the amino acid sequence of SEQ.ID.NO.1, purified from culture fluid of actinomycete strain K97-0003, about 14 KDa (protein)
chain: ASVTIRNAQTGRLLDSNYNGNVYTLPANGGNYQRWTGPGDGTVRNAQTGRCLDSNYDGAVYTLPCNGGSYQKWLFYSNGYIQNVETGRVLDSNYNGNVYTLPANGGNYQKWYTG
modifications: Actinomyces K97-0003 Strain
[1]
  IC50: 38 nM
[2]
  EC50: 230 nM
[3]
  IC50: 14 nM
[4]
  IC50: 2 nM
[5]; HeLa/CD4/LTR + HeLa135/env/Tat cells, 24 hours, read-out: IC50 of syncytium formation ability
  IC50: 60 nM
[5]; same IC50 in mass concentration (in parentheses)
  IC50 of syncytium formation ability: (0.8 μg/ml
[6]
  IC50: 16 nM
[7]
  CC50: > 8000 nM
[8]
  IC50: 3.7 nM
